Test results as given in the supplement of paper PMC10126150.
Sequences with one replicate were seen in a single cluster, so their values are uncertain.

The sequences below were run on ATP (assay: switch fluorescence ratio, 500 uM ATP over buffer (Cy3 cluster intensity, sum of 5 cycles each) (fold (ratio)); higher = stronger signal-on switching upon ATP binding; sequences stand for … in TCGTCGGCAGCGTCAGATGTGTATAAGAGACAGTTTTTTTTTTTTTTTTTTTTTTTTT…TC). Conditions: aptamer strand: ATP DNA aptamer (quencher-CACCTGGGGGAGTATTGCGGAGGAAGG + anchor), 100 nM annealed; ATP concentration: 500 uM; one replicate.
How it was run: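 After annealing to 100 nM quencher-labelled ATP aptamer, Cy3-labelled switching-strand clusters on a modified Illumina MiSeq flow-cell were imaged in selection buffer. A second image followed after 15 min with 500 uM ATP at 22 °C, and five such buffer/ATP cycles were done, each separated by NaOH stripping and re-annealing. The fluorescence ratio, averaged per switch-domain sequence, is summed target-cycle over summed buffer-cycle Cy3 intensity per cluster, with clusters outside 100-1000 RFU excluded.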
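Also: ATP exposure 15 min at 22 °C before imaging.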

Sequence	switch fluorescence ratio
TGTTAGTAGG	1.02
TGTTATAGAA	0.997
TGTTATATTT	0.99
TGTTATCATT	1.01
TGTTATCTTC	0.982
TGTTATGTGT	1.02
TGTTCAGCTT	1.02
TGTTCCTCCA	1.71
TGTTCGGGCG	0.999
TGTTCGTTAG	1
TGTTCTAACG	0.989
TGTTGAACGG	1.06
TGTTGAGGAG	1.01
TGTTGCCTAA	0.975
TGTTGCGTCA	1.04
TGTTGGAC	0.949
TGTTGGGAAG	1.47
TGTTGTACAT	0.941
TGTTGTATCA	0.958
TGTTGTGGCC	0.967
TGTTGTTCCG	0.979
TGTTTAAAGA	1
TGTTTACAGA	1
TGTTTAGTGG	1
TGTTTATCCT	1.05
TGTTTCAGAA	0.962

Sequence	switch fluorescence ratio
TGTTTCGGT	1
TGTTTGCAGT	0.992
TGTTTGTTTA	1.01
TGTTTTTTA	1.05
TTAAAAGGGC	1.02
TTAAAATGGC	1.01
TTAAACCCAT	1.01
TTAAACTGTG	1.24
TTAAAGATG	1.01
TTAAAGCCCA	0.996
TTAAAGGAGT	1
TTAAAGGCT	1.06
TTAAATATCT	1.03
TTAACCAATA	1
TTAACCGCT	1.1
TTAACCTGGG	1
TTAACGCATT	1.16
TTAACGGATA	0.998
TTAACGTCCT	1.06
TTAACTGAGG	1
TTAACTGGAT	0.965
TTAAGAAGAG	0.996
TTAAGAAGCA	1.02
TTAAGACCTG	1.03
TTAAGACGAA	0.998
TTAAGAGCCC	1

Sequence	switch fluorescence ratio
TTAAGATTAA	1.01
TTAAGATTAT	0.975
TTAAGATTGA	0.978
TTAAGCATAT	1.2
TTAAGCCAAA	1.04
TTAAGCCT	1.16
TTAAGGTTCC	1.11
TTAAGTAACA	0.993
TTAAGTCAAT	1
TTAATACGTA	1.07
TTAATAGTT	0.994
TTAATATGTG	1
TTAATCCACC	1.22
TTAATCGGCA	0.999
TTAATCTTGT	1.01
TTAATGCTTC	1.01
TTAATGGTGT	1.05
TTAATGGTT	1.07
TTAATTAAGC	1.02
TTAATTACC	1.12
TTAATTAGTA	0.999
TTAATTGCGG	1.06
TTAATTTCTC	1.02
TTACAATTAT	0.989
TTACACGAAC	1.45
TTACACGGCA	1.09

Sequence	switch fluorescence ratio
TTACATACG	1.42
TTACATGGGT	1.01
TTACCAAGGC	1.13
TTACCACGAG	1.04
TTACCATGAC	1.15
TTACCATTAT	1.04
TTACCCGATT	0.992
TTACCCGCGG	1.04
TTACCGTGGA	1.05
TTACCTAGTG	1.05
TTACCTGGTG	1.84
TTACCTTCAT	1.62
TTACGAATTA	0.988
TTACGACGGC	1.13
TTACGATTGT	1.05
TTACGCCAG	1.05
TTACGCCGGT	1.02
TTACGCCTGC	1.1
TTACGCGTG	0.998
TTACGCTTTG	0.976
TTACGGAGAC	1.24
TTACGGAGTT	1.07
TTACGTATGC	1.49
TTACGTATGG	1.06
TTACGTCACT	1.61
TTACGTGTCA	0.983

Sequence	switch fluorescence ratio
TTACGTTTAG	1.07
TTACTACTGC	1.06
TTACTAGG	1.04
TTACTAGTGT	1.01
TTACTATTGT	1.01
TTACTATTTA	1.05
TTACTCATAA	1.09
TTACTCGGAT	1.11
TTACTGAGGG	1.08
TTACTGGACC	1.26
TTACTTACCA	1.19
TTACTTGTTG	0.988
TTACTTTGCG	0.976
TTAGAACGAC	1.07
TTAGAAGCT	0.855
TTAGAAGGCG	1
TTAGAATGCT	0.991
TTAGACGTGC	0.97
TTAGAGATCG	1.04
TTAGAGGATA	0.977
TTAGAGTGCG	0.989
TTAGATGGGT	1
TTAGATGTTC	0.991
TTAGATTGCT	0.975
TTAGATTGTT	1.01
TTAGCAGTGT	1.03

Sequence	switch fluorescence ratio
TTAGCATACG	1.78
TTAGCCCAGA	1
TTAGCCGGGC	0.991
TTAGCCGTGG	0.983
TTAGCCTTGC	1.03
TTAGCCTTTG	0.994
TTAGCGGAAT	1
TTAGCGTCAG	1.02
TTAGCTGAAT	0.973
TTAGGAAAGA	0.998
TTAGGAAGGC	0.972
TTAGGATACC	1.02
TTAGGATGGT	0.975
TTAGGCGGAT	0.98
TTAGGCTATG	0.965
TTAGGCTCGT	1.01
TTAGGGCGAG	0.974
TTAGGGTGCG	1.04
TTAGGTGGTT	1.02
TTAGGTGTAC	1.96
TTAGGTTTTC	0.995
TTAGTAAAAC	1.17
TTAGTAGG	1.02
TTAGTCCGTA	1.27
TTAGTCTTTT	0.998
TTAGTGGCAT	0.972

Sequence	switch fluorescence ratio
TTAGTTCTCA	0.992
TTAGTTGATT	1.02
TTAGTTTAGT	0.971
TTATAAACTC	1.06
TTATAAAGA	0.996
TTATAAAT	1.01
TTATAAATA	1.03
TTATAAGCTG	1.01
TTATACAGCG	0.965
TTATACATAT	1.06
TTATACCTGA	1.08
TTATACTGCA	1.03
TTATAGCGCC	0.999
TTATAGCTAG	1.01
TTATAGCTGC	1.15
TTATAGTAAA	1
TTATATAATT	1.01
TTATATCCAT	0.972
TTATATCTCA	0.999
TTATCATAAT	0.965
TTATCCGAGC	1.11
TTATCGCGAT	1
TTATCGCTAT	1.06
TTATCGCTGA	1.01
TTATCGGTGG	1.04
TTATGAATCG	1.05

Sequence	switch fluorescence ratio
TTATGCAGTG	0.969
TTATGCCCTG	0.989
TTATGCGAT	1.04
TTATGCTGCA	0.981
TTATGCTTG	1.01
TTATGGCGTT	1.01
TTATGGTGTT	0.989
TTATGTCATT	1.02
TTATGTCCCT	1.01
TTATTAACCG	1.03
TTATTACCGT	1.02
TTATTAGGCC	0.976
TTATTATAC	1.05
TTATTCAAGC	0.985
TTATTCGACC	1.34
TTATTCTGAT	0.98
TTATTGTCAA	0.995
TTATTGTGGG	1.03
TTATTTATCT	1.02
